The supplement of paper PMC11417369
The other results are listed elsewhere or left out.

These sequences were tested on PfSIP2 AP2 domain 1 (GST-tagged) (assay: gcPBM binding intensity (ln(normalized median fluorescence intensity)); higher = stronger DNA binding).
Procedure, shortened: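 Binding intensity is defined as the maximum Masliner-normalised natural-log median intensity across replicate spots for either probe orientation. It was measured on an Agilent 4 × 180k array of primer-extended double-stranded 36-bp intergenic genomic probes and negative controls, to which GST-tagged P. falciparum DNA-binding domains made in E. coli were applied for 1 h in 1× PBS with 1% milk, 0.2 mg/ml BSA, 0.5% salmon testes DNA and 0.03% Triton X-100. Detection was by Alexa488 anti-GST antibody and scanning at 488 nm.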

Compared with “TGCAGTCTGGAGAAGAGTACACAGTATCTGGTAACA [XGTACX_site2037]”, “TATATATTCATATGTTGTACATAAATACAAATAAGA [XGTACX_site5602]” is higher in “gcPBM binding intensity (ln)” value: 6.72 for the first, 7.16 for the second.

Compared with “AAAGGTAAATGTAAATAAATAAATAATAAATATATA [GTGCAC_negctrl_site681]”, “ATTAATATGAATAAAACACACATATATAATTTGTAA [CACACA_site1929]” is higher in “gcPBM binding intensity (ln)” value: 6.79 for the first, 6.87 for the second.

Compared with “TAACTTTTATCCTTAATTCATATATAAGATTAAATC [CACACA_negctrl_site669]”, “ATTTTTTTTTTTTTTTTTTATATGCTCTCCATGAGA [CACACA_negctrl_site1225]” is lower in “gcPBM binding intensity (ln)” value: 6.99 for the first, 6.9 for the second.

Going from “AAAAAAAAAAAGAAATGTACATGAATATTTTAAATG [XGTACX_site4069]” to “CATGCTACATCTTATTGTACTTATCTAATGTTAGTA [XGTACX_site1863]”, the “gcPBM binding intensity (ln)” value rises from 6.82 to 6.93.

Compared with “AAAAAGGAGAAACACACACACACACCCATATATATA [CACACA_site905]”, “AGGCAATATTATATATATATATATATATATATATAT [CACACA_negctrl_site826]” is higher in “gcPBM binding intensity (ln)” value: 7.65 for the first, 9.49 for the second.

First: TCTTTTTACACCTCTTACATAAAACAAAATAAGGGG [XGTACX_negctrl_site12]
Second: TATACATGTTATGTACATCTAATCACACGTGCAATA [CACACA_negctrl_site1267]
The “gcPBM binding intensity (ln)” value of the first is higher: 8.02 for the first, 7.16 for the second.

Compared with “TTGTAAATTTACATTTGTACATAAATATATTAATAT [XGTACX_site3969]”, “ATATATATAAAACACACACACACATGGTTTAAAACT [CACACA_site4219]” is higher in “gcPBM binding intensity (ln)” value: 7.14 for the first, 7.4 for the second.

Compared with “TGTATGTTTGGGTGCACACATAAATATTATATATAG [CACACA_site3397]”, “TATAAAATAAAAAATATATATATGTATATATATATA [TGCATGCA_negctrl_site163]” is lower in “gcPBM binding intensity (ln)” value: 12.2 for the first, 9.23 for the second.

First: ATTATTTTATATACATGTACATATTATATATAAAAG [XGTACX_site2735]
Second: CACACTTTTTAAATTAACGCATTTCAAAAAAAATAT [CACACA_negctrl_site84]
The “gcPBM binding intensity (ln)” value of the first is higher: 7.05 for the first, 6.96 for the second.

First: TATTTATACACGCACACACACTTATACATTTATATA [CACACA_site7543]
Second: TTTCTTTTTTAGAGGTGTACACGTAGGCCTCTTGGA [XGTACX_site4760]
The “gcPBM binding intensity (ln)” value of the first is higher: 7.47 for the first, 7.3 for the second.

Compared with “TTAGATATTAATATATGTACATATTAATATATTTAC [XGTACX_site7119]”, “TAAATGTAAAACGAAATGCACACTATGGAAAATATA [CACACA_site724]” is higher in “gcPBM binding intensity (ln)” value: 6.9 for the first, 8.68 for the second.

First: GGAATATTATTTCAATGTACATTTTGAGATTAGAAT [XGTACX_site8187]
Second: ATTATTATTTTACGTAGTACATATAATAAATATTTA [XGTACX_site8934]
The “gcPBM binding intensity (ln)” value of the first is higher: 7.02 for the first, 6.86 for the second.

Going from “TTATTTCTAATTCGTTGTACAATATATAATATATAT [XGTACX_site5861]” to “TATCCATATTTGTTCACACACACACGGATTTATATA [CACACA_site7649]”, the “gcPBM binding intensity (ln)” value falls from 7.34 to 7.13.

First: TTGATAGACACATGCACACATGCAATACTTTATTCA [CACACA_site3000]
Second: TAGGTGTTAAAAAATACACACACAAAAAAAAAAAAA [CACACA_site7927]
The “gcPBM binding intensity (ln)” value of the first is higher: 8.16 for the first, 7.01 for the second.

Compared with ACATTTTTGGTTTTAGTGCAATATGAATTATTTTAT, “TCTTCCATTTTTATTACACACATAAATATGAAATCG [CACACA_site3471]” is lower in “gcPBM binding intensity (ln)” value: 7.85 for the first, 7.26 for the second.

First: CCTTTAAGCAAAAACACACACACATATATATATATA [CACACA_site348]
Second: AGTTTTATATTTCTGAGTACTTATGAATCTAGCTCG [XGTACX_site4330]
The “gcPBM binding intensity (ln)” value of the first is higher: 9.12 for the first, 6.82 for the second.

Going from “TTTTTTTTTTTTTTTACACACATTTTAATAATTTTA [CACACA_site1492]” to “TTGTAAAAAATTCATACACACGTCTTATTTTTAAGA [CACACA_site8390]”, the “gcPBM binding intensity (ln)” value falls from 7.01 to 6.83.

Compared with “ATTTTTTCTAAAAGTTGTACATTAAAACGTGTTCAC [XGTACX_site4803]”, “AAGACTCTTTGTCCTTGTACATATATTTTTATGTTT [XGTACX_site3711]” is lower in “gcPBM binding intensity (ln)” value: 7.16 for the first, 6.78 for the second.

Compared with “TTTATATAATATGAATGTACTTATATATTTATAGAC [XGTACX_site3261]”, “TATTTATTCTCCAACACACACACATATATATATATA [CACACA_site2894]” is higher in “gcPBM binding intensity (ln)” value: 7.6 for the first, 9.11 for the second.

First: AAAATGAATTTAAAATGTACTTTTTCTAAAGAGTAA [XGTACX_site2337]
Second: TTATAGGTGCTTCGTAGTACATAAAAATAATATATA [XGTACX_site6979]
The “gcPBM binding intensity (ln)” value of the first is lower: 6.96 for the first, 8.2 for the second.

Going from “GTTTATTCTTTTTATACACACCTTATTTGATTAACA [CACACA_site4567]” to “TATACATAGAAACACACACACATATATATATATATA [CACACA_site2248]”, the “gcPBM binding intensity (ln)” value rises from 7.32 to 9.59.

First: TTACTACTATATTATACACACATATATATATATATA [CACACA_site2621]
Second: TTTATTTATGTAGATACACACCCATGTTATATGGAG [CACACA_site9144]
The “gcPBM binding intensity (ln)” value of the first is higher: 9.83 for the first, 7.05 for the second.

First: TTCTAATATTTTTGCACACTAAACAATAAATTTCCT [CACACA_site3944]
Second: TGTGAATAAATAAGCACACATAAACACATATATAAA [CACACA_site6114]
The “gcPBM binding intensity (ln)” value of the first is higher: 7.66 for the first, 7.02 for the second.

Compared with “TTAAAAGAAAAAATATGTACATATATTATATATATC [XGTACX_site7009]”, “AGCAAAAATTAAATAAATAAATATATATATATATAT [TGCATGCA_negctrl_site449]” is higher in “gcPBM binding intensity (ln)” value: 7.24 for the first, 9.26 for the second.

First: GCAACATTCTAAGACACACACACACCCATATATATA [CACACA_site1053]
Second: AATGATGTCATAGGGGGTACACATAAATGTGAATGT [XGTACX_site6745]
The “gcPBM binding intensity (ln)” value of the first is lower: 7.46 for the first, 7.65 for the second.

Going from “ATATTAATAATATATACACACATAAGTATTGTATAT [CACACA_site4095]” to “AATAATATATATATATATATATATAGATATGTATAT [GTGCAC_negctrl_site653]”, the “gcPBM binding intensity (ln)” value rises from 6.97 to 7.68.

First: ATGTTAACTAAATGTACACACCTATGTTGATGTAAC [CACACA_site5073]
Second: TATATATATAAAATATGTACATAAAATTATTTATTT [XGTACX_site7666]
The “gcPBM binding intensity (ln)” value of the first is lower: 7.17 for the first, 7.83 for the second.

Compared with “AAAGTTTAAATGAGAAGTACAAATTTTTGTTTTTAT [XGTACX_site1844]”, “ATATAAAGTATGTTAGTGCACTTTTTTTTTTTTTTT [GTGCAC_site9419]” is higher in “gcPBM binding intensity (ln)” value: 6.79 for the first, 11.2 for the second.
